Drawing on PubChem BioAssay AID1240 (Sanford-Burnham Center for Chemical Genomics, 2008), this text covers displacement for 108 compounds.

Among all 50,000 compounds or so, about 800 (1.6%) showed an effect of 50% or more. Some of the results follow.

For the assay, the target named is Bcl-2-like protein 10 (Homo sapiens) (UniProt Q9HD36). The assay is described as follows: TR3 peptide-Bcl-B binding displacers, biochemical primary FP assay, phenotype converters (AID 1240).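 Note: 0% = Bcl-B with tracer peptide and DMSO and 100% = tracer peptide lacking Bcl-B.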 The settings on record: GST-Bcl-B / FITC-TR3 peptide fluorescence polarization; stronger effect = higher value; compound at 3.75 mg/L.
Chain of UniProt Q9HD36 (Q9HD36 whole entry, looked up): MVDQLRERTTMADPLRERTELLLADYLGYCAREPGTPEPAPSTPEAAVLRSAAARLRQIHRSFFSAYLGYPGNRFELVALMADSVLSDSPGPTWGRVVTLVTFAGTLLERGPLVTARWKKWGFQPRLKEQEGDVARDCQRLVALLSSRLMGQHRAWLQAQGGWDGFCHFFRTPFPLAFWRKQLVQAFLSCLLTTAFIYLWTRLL
On to `O=C(Nc1ccc(Cl)cc1Cl)c1ccc(I)cc1`, for which the displacement was found to be 8.9%.
For `O=C(NC(=S)Nc1ccc(-c2nc3ccccc3s2)cc1)c1ccccc1Cl`, the displacement is -1.6%.
With `COc1cc(OC)cc(C(=O)NC2CC2)c1`, the displacement was 2.2%.
Take `COc1ccc2[nH]c(C(=O)N3CCOCC3)cc2c1`: the displacement was -16.2%.
With `COc1cc(OC)cc(C(=O)Nc2cccc(NC(C)=O)c2)c1` the figure was -6.4%; with `CCN(CC)C(=O)c1cnn(-c2ccccc2)c1NC(=O)c1ccccc1Cl`, 9.1%.
With `Oc1c(Cl)cc(Cl)cc1/C=N/N=C/c1cc(Cl)cc(Cl)c1O` the figure was 2.9%; with `C/C(=N\N=C1\NC(=O)C(CC(=O)Nc2ccccc2C(F)(F)F)S1)c1ccco1` (stereo not drawn), -7.9%; with `CCN1C(=O)/C(=C\c2ccc(-c3ccc(Cl)cc3Cl)o2)SC1=S`, 11.4%.
With `O=c1[nH]c(/C=C\c2ccccc2Cl)c([N+](=O)[O-])c(=O)[nH]1` the figure was 12.4%; with `Cc1ccc(NC(=O)CC2SC(=Nc3ccccc3)N(c3ccccc3)C2=O)cc1` (stereo not drawn), -2.2%; with `CCOc1cc(/C=N/NC(=O)C(=O)Nc2ccccc2OC)ccc1O`, 6.3%.
Consider `Cc1cc2c(cc1C)-c1nc3ccccc3c(=O)n1C(C)(C)C2`, for which the displacement turned out to be 6.6%.
In the case of `O=C(CNc1n[nH]c(=O)[nH]c1=O)N/N=C/c1ccc(C(F)(F)F)cc1`, the displacement is -5.8%.
In the case of `COc1ccc(CN2CCN(C(=O)C(c3ccccc3)c3ccccc3)CC2)c(OC)c1`, the displacement came out at 18.2%.
With `CCOc1ccc(C(=O)NCc2cccs2)cc1OCC` the figure was -0.9%; with `Cc1ccc(N2C(=O)CC(N3CCCC3)C2=O)cc1` (stereo not drawn), -2%; with `CN1C(=O)NC(=O)/C(=C/c2ccc(O)c([N+](=O)[O-])c2)C1=O`, -7.9%.
On to `CCn1nnnc1-c1ccc(OC)c(S(=O)(=O)NCCc2ccc(OC)c(OC)c2)c1`, for which the displacement came to 8.3%.
As for `O=C(Nc1ccc2[nH]c(=O)[nH]c2c1)c1cc(C(F)(F)F)cc(C(F)(F)F)c1`, the displacement is -9.6%.
`Cc1cc(OCC(=O)Nc2ccc3oc(-c4cccnc4)nc3c2)cc(C)c1Cl`: the displacement was -5.1%.
With `CCN(C(=O)c1cc2cc(OC)ccc2oc1=O)c1ccccc1` the figure was 0.4%.
With `O=C(c1ccccc1[N+](=O)[O-])N1CCN(C/C=C/c2ccccc2)CC1` the figure was 9.8%; with `CN(C)c1ccc(NC(=O)Cc2ccc(Cl)cc2)cc1`, -2.4%; with `Cc1cccc(-n2c(C)cc(/C=N/NC(=O)c3cccnc3)c2C)c1`, -30.1%.
Regarding `CCCCOc1ccc2c(C)c(CC)c(=O)oc2c1C`, the displacement was -3.1%.
With `O=C(COc1ccccc1)NCC(=O)N/N=C/C(Br)=C/c1ccccc1` the figure was -1.7%; with `Cc1ccc(N2C(=O)CC(NCCc3ccccc3Cl)C2=O)cc1` (stereo not drawn), 8.7%.
With `O=C(Nc1ccc(Br)cc1Br)c1ccccc1F` the figure was 1.2%; with `O=C1CC(N2CCN(c3ccccn3)CC2)C(=O)N1c1cccc2ccccc12` (stereo not drawn), 1.5%.
With `CC1=C(C(=O)Nc2ccc(C)cc2)C(c2ccc([N+](=O)[O-])cc2)NC(=O)N1` (stereo not drawn) the figure was -3.6%; with `Cc1ccc(NC(=O)C2CC2(c2ccccc2)c2ccccc2)cc1` (stereo not drawn), 4.1%.
As for `Cc1ccc(C(=O)Oc2ccc(/C=c3/sc4nc5ccccc5n4c3=O)cc2)cc1`, the displacement worked out at 10.2%.
As to `c1ccc(CCCN2CCN(C3CCN(Cc4ccccc4)CC3)CC2)cc1`, the displacement was -7.2%.
With `CCOC(=O)c1cc(=O)n2[nH]c(-c3ccc(Cl)cc3)cc2n1` the figure was -8.7%; with `COc1ccc(S(=O)(=O)N2CCC(CN3C(=O)c4cccc5cccc(c45)C3=O)CC2)cc1`, 4.9%; with `O=C(COC(=O)c1ccc(S(=O)(=O)N2CCCCC2)cc1)c1cccc([N+](=O)[O-])c1`, -1.1%.
`CCOc1cccc(C(=O)Nc2ccccc2C(=O)O)c1`: the displacement turned out to be 12.4%.
With `Cc1cc(C)nc(NC(N)=NC2CCCCCC2)n1` the figure was -10.2%; with `O=C1c2ccccc2C(=O)N1CCCSc1nc2ccccc2o1`, -11.9%.
With `Cc1cc(C)c(C(N)=O)c(Nc2cc(Cl)ccc2Cl)n1` the figure was -13.9%; with `O=C(CCN1C(=O)S/C(=C\c2ccccc2)C1=O)Nc1ccccc1`, 10.5%.
With `C=CCn1c(O)c(C2=c3cc(Cl)ccc3=NC2=O)sc1=S` the figure was -14.2%; with `Cc1cc2nc3s/c(=C\c4cccc(Cl)c4Cl)c(=O)n3c2cc1C`, 1.7%.
Turning to `COC(=O)c1ccc(Cl)c(NC(=O)C(C)NC(=O)C(c2ccccc2)c2ccccc2)c1` (stereo not drawn), the displacement was 1.1%.
With `O=C1C(Cl)=C(Nc2ccc(Cl)cc2)C(=O)c2ccccc21` the figure was -9.7%; with `C=CCN1C(=O)/C(=C\c2ccc(C(=O)OC)cc2)C(=O)NC1=S`, 16.1%.
With `C/C(=N\NC(=O)CCc1ccccc1)c1cccc(N)c1` the figure was 4.1%.
With `O=c1/c(=C/c2cccc(C(F)(F)F)c2)sc2nc3ccccc3n12` the figure was 4.3%; with `CC(=O)NC(=N/OC(C)=O)/C(=N/OC(C)=O)c1nc2ccccc2[nH]1`, -2.3%; with `O=C(/C=C/c1cccc([N+](=O)[O-])c1)NCc1ccco1`, -3.6%.
Consider `Cc1cccc(N2C(=O)NC(=O)/C(=C\c3ccc(-c4ccccc4C(=O)O)o3)C2=O)c1`, for which the displacement is -5.1%.
With `CC(C)OC(=O)C1C(=O)CC(C)(O)C(C(=O)OC(C)C)C1c1ccc(F)cc1` (stereo not drawn) the figure was 1.1%.
With `COC(=O)c1ccc(/C=N/NC(=O)CCc2c(C)n[nH]c2C)cc1` the figure was 4.2%; with `Cc1cc(C)nc(Nc2nc3ccccc3s2)n1`, -8%; with `COc1ccc(Cc2noc(Cc3ccc(Cl)cc3)n2)cc1`, -5.3%.
With `Cc1ccc(C)c(NC(=O)COc2ccc3ccccc3c2)c1` the figure was -4.6%; with `C/C(=N\Nc1nc(C)cc(-c2ccccc2)n1)c1ccc(C)cc1`, -6.4%; with `C/C(=N/NC(=O)c1ccc2c(c1)OCO2)c1ccc(Br)s1`, 4.2%.
As for `CC(=O)c1cccc(NC(=O)/C(=C\c2ccco2)NC(=O)c2cccs2)c1`, the displacement was -3.7%.
Regarding `Cc1ccc(O)c(/C=N/n2cnnc2)c1`, the displacement was 29.6%.
With `CC(C)(C)c1cc(O)c(S(N)(=O)=O)c(C(C)(C)C)c1` the figure was -10.5%; with `COc1cc(-c2nc(-c3ccccc3)c(-c3ccccc3)[nH]2)cc(OC)c1OC`, 10.8%; with `COc1ccc(C(=O)N/C(=C/c2ccc(OCCOc3ccccc3OC)cc2)C(=O)NCC2CCCO2)cc1` (stereo not drawn), 5.4%.
With `COc1ccc(/C(O)=C2\C(=O)C(=O)N(CCCO)C2c2ccc(Br)cc2)cc1` (stereo not drawn) the figure was -6.7%; with `COc1ccc(/C=C2/C(=O)N(c3ccccc3)N=C2C)c(OC)c1OC`, 15.4%.
As to `O=C1Nc2ccccc2C1(O)c1c[nH]c2ccccc12` (stereo not drawn), the displacement came to 7.4%.
With `CC(/C=C1\SC(=S)N(c2cccc(Br)c2)C1=O)=C\c1ccccc1` the figure was 11%.
With `Cc1ccc(OCCCn2ccnc2)cc1C` the figure was 4.7%; with `O=C(Nc1ccc(Cl)c(C(F)(F)F)c1)c1cccs1`, -5.7%; with `Cc1ccc(C(=O)Nc2ccc(Cc3ccncc3)cc2)cc1[N+](=O)[O-]`, -1.5%.
With `O=C(c1cc(-c2ccccc2)nc2ccccc12)N1CCCc2ccccc21` the figure was 3.8%; with `O=c1[nH]c(N/N=C/c2cccs2)nnc1-c1ccccc1`, -1.6%; with `Cc1ccc(C(=O)/C=C2\C(=O)Nc3ccccc32)cc1`, 6.7%.
With `Cc1nnc(NS(=O)(=O)c2c(C(C)C)cc(C(C)C)cc2C(C)C)s1`, the displacement worked out at 3.7%.
Turning to `Cc1ccccc1NC(=O)C1C2CC/C=C\CC/C=C/CCC21` (stereo not drawn), the displacement was -9.6%.
As to `CSc1nnc2c(n1)OC(c1cccc(C)n1)Nc1ccccc1-2` (stereo not drawn), the displacement was 7.2%.
With `CC(C)(C)c1ccc(OCC(=O)N2CCC(C(N)=O)CC2)cc1` the figure was -6%; with `Cc1ccc(NC(=O)/C=C/c2ccco2)cc1C`, -4.7%; with `O=C1C(=O)N(c2cccc(C(F)(F)F)c2)C(c2ccccc2[N+](=O)[O-])/C1=C(/O)c1ccccc1` (stereo not drawn), -0.3%.
Take `CN(C)CCN1C(=O)C(=O)/C(=C(/O)c2ccccc2)C1c1ccc([N+](=O)[O-])cc1` (stereo not drawn): the displacement is -8%.
In the case of `O=S(=O)(c1ccc(Cl)cc1)N1CCN(Cc2ccc3c(c2)OCO3)CC1`, the displacement was 1.9%.
With `COc1ccc(C(=O)Nc2ccc(S(=O)(=O)N3CCCC3)cc2)cc1I` the figure was -4.4%; with `O/N=C/c1ccccc1OCc1ccccc1`, -9.7%.
With `COC(=O)C1=C(O)/C(=C\c2c(F)cccc2Cl)N=C1C` the figure was 4.6%.
With `Cc1ccc(N2C(=O)NC(=O)/C(=C\c3ccc(O)c(Br)c3)C2=O)cc1` the figure was 3.6%; with `Nc1cccc(NC(=O)c2ccco2)c1`, 9.7%; with `COc1cc(C(=S)N2CCOCC2)cc(OC)c1OC(=O)CCc1ccccc1`, 9.7%.
Turning to `O=c1/c(=C/c2ccc(-c3ccc(Cl)cc3Cl)o2)sc2nc3ccccc3n12`, the displacement was -1.7%.
As to `COc1cc(/C=C(\C#N)c2nc3ccc(C)cc3[nH]2)cc(OC)c1OC(C)=O`, the displacement was -4.6%.
With `Cc1ccc2nc(-c3ccc(-c4ccccc4)cc3)oc(=O)c2c1` the figure was -10.3%; with `C(=C\c1ccccc1)/CN1CCN(c2ncnc3c2cnn3-c2ccccc2)CC1`, -2%.
With `COc1ccccc1CNC(=O)c1ccc(NC(C)=O)cc1` the figure was -5.3%; with `CCOCCOC(=O)C1=C(C)N(C)C(=O)NC1c1cccc([N+](=O)[O-])c1` (stereo not drawn), -1.2%; with `Cc1c(NC(=O)COc2ccc(Cl)cc2)cccc1[N+](=O)[O-]`, 6.5%.
With `O=[N+]([O-])c1cccc(S(=O)(=O)NCc2ccco2)c1` the figure was 0.5%; with `Cc1c(C(=O)N2CCN(c3ccccn3)CC2)cccc1[N+](=O)[O-]`, 2.7%; with `COc1ccc(C2CC(C(F)(F)F)n3nc(C(=O)O)cc3N2)cc1OC` (stereo not drawn), 2.4%.
Turning to `Cc1cc(/C=C2/SC(=S)NC2=O)c(-c2ccccc2)n1-c1ccccc1`, the displacement came out at 0.7%.
As to `N#CC1=C(Nc2ccc(Cl)cc2)CCC1`, the displacement was 1.3%.
With `COc1ccc(/C=C(\NC(=O)c2ccccc2)C(=O)NCC(C)C)cc1` the figure was 9.7%; with `Cn1c(NC(=O)c2cc(-c3ccc(Br)cc3)nc3ccccc23)cc(=O)n(C)c1=O`, -10%; with `CC1CC(Nc2ccccc2)c2ccccc2N1C(=O)COc1ccc(Cl)cc1` (stereo not drawn), 9.1%.
With `O=c1oc2cc(OCc3c(F)cccc3Cl)c(Cl)cc2c2c1CCC2` the figure was 10.9%.
For the compound `CCOc1cc(/C=C2\SC(=S)NC2=O)ccc1OC(C)=O`, the displacement turned out to be 12%.
With `Cc1ccc2oc(-c3cccc(NC(=O)COc4ccc(Cl)c(C)c4)c3C)nc2c1` the figure was 6.9%.
With `COc1ccccc1/C=C1\SC(=S)N(c2ccc(F)cc2)C1=O` the figure was 13.3%; with `COc1ccc(Br)cc1C(=O)Nc1ccc2c(c1)oc1ccccc12`, 5.6%.
